Consider 81 compounds from PubChem BioAssay (NCI).

Values joined by “and” are separate entries in the source; they are usually repeats but may differ in a detail not shown here. Identical values can stand only once.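 Values below derive from 48-hour exposures of cells grown in 96-well plates, with endpoints linearly interpolated between the two concentrations bracketing the appropriate inhibition level. Here, GI50 denotes the concentration required for 50% inhibition of growth. Definition used: TGI = concentration required for complete inhibition of growth.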 Peptide text beside a SMILES is read from it.

In this experiment the test system is NCI-H322M lung. The experiment can be described thus: NCI-60 cell line screen, 48 h.
In the case of `COC(=O)C(C)NP(=O)(N1CC1)N1CC1` (stereo not drawn), the TGI was over 100 µM.
As for `Cc1cc(I)cc(CN(C)CCCN2CCSCC2)c1O`, the GI50 is 76.7 µM and the TGI was over 100 µM.
Regarding `CC/C(C)=C1\CCC(CN2CCOCC2)C1=O` (stereo not drawn), the TGI was over 100 µM.
In the case of `ClC1(Cl)C(c2ccccc2)C1c1ccccc1` (stereo not drawn), the TGI was over 100 µM.
Same read-out and setting: with `CCN(CC)CCCC(C)Nc1c2ccc(Cl)cc2nc2ccc(OC)cc12` (stereo not drawn) the figure was 5.17 µM; with `CN(C)C=Nc1cccc2nsnc12`, over 100 µM; with `Cc1cc(C)nc(NS(=O)(=O)c2ccc(Nc3c4ccccc4nc4c(C(=O)NNCCO)cccc34)cc2)n1`, over 100 µM.
As to `O=C1Nc2ccc(C(=O)c3ccco3)cc2/C1=C/c1cc(Cl)c(O)c(Cl)c1`, the GI50 is 6.37 µM and the TGI was over 23.3 µM.
`COc1ccc([N+]2=NC(c3ccc([N+](=O)[O-])cc3)=NN(c3ccccc3)C2)cc1` showed a TGI of over 100 µM.
For `O=C1c2cccc3cc([N+](=O)[O-])cc(c23)C(=O)N1CCCN1CCN(CCCNc2ccc3ncn4c5ccccc5c(=O)c2c34)CC1`, the TGI is over 50 µM.
Turning to `C=C1C(=O)C23CC1C[C@H](OC(C)=O)[C@H]2C1(C)C(OC(C)=O)C[C@H](O)C(C)(C)[C@H]1C(=O)[C@@H]3OC(C)=O` (stereo partly drawn), the TGI was 28.5 µM.
Compound `CC(=O)OCC1OC(N2C(=O)C(=O)c3cc(C)ccc32)C(OC(C)=O)C(OC(C)=O)C1OC(C)=O` (stereo not drawn) displayed a TGI of over 100 µM.
With `CCOC(=O)CCC(NC(=O)c1ccc(CNc2nc3ccccc3nc2C(=O)OCC)cc1)C(=O)OCC` (stereo not drawn), the TGI is over 100 µM.
Compound `CCCCCCCCC[C@@H]1CC(=O)OCC2OC(O[C@H](CCCCCCCCC)CC(=O)OCC3OC(O[C@H](CCCCCCCCC)CC(=O)OCC4OC(O1)C(O)C(O)C4O)C(O)C(O)C3O)C(O)C(O)C2O` (stereo partly drawn) registered a TGI of 23.3 µM.
In the case of `COc1cc(C2SCC(=O)N2c2ccccc2Cl)cc(OC)c1OC` (stereo not drawn), the TGI was over 100 µM.
`NC1(C(=O)NC2(C(=O)O)CCCC2)CCCC1` (HELM PEPTIDE1{[NC1(C(=O)[*:2])CCCC1].[O=C(O)C1(N[*:1])CCCC1]}$$$$V2.0) displayed a TGI of over 100 µM.
For `O/N=C(\c1ccccc1)N1CCCCC1`, the TGI is over 100 µM.
The same measure, in the same setting: with `Cc1c(NC(=O)C(C)(C)Br)c(=O)oc2c(C)c3occc(=O)c3cc12` the figure was over 100 µM.
With `Cc1ccccc1NC(=O)N/C(N)=N/c1nc(-c2cccc([N+](=O)[O-])c2)cs1`, the GI50 was 3.03 µM and the TGI was over 100 µM.
Consider `COc1ccc(OC)c2sc(N3C(=O)/C(=C/c4ccc(Cl)cc4)N=C3c3ccccc3)nc12`, for which the TGI was over 100 µM.
On the same count and under the same terms, with `CCOC(=O)C(C(=O)OCC)=C1NC2(c3ccccc3Nc3ccc(C)cc32)C(C#N)S1` (stereo not drawn) the figure was 42.5 µM; with `Cc1c(C)c2c(c(N)c1C#N)C(=O)N(CCc1ccccc1)C2=O`, over 100 µM.
For the compound `COc1nc(C)nc2sc3c(c12)CCCC3`, the TGI was over 100 µM.
Still for that read-out and setting: the result for `Cc1ccc2nc(CN3CCCC(O)C3)cc(=O)n2c1` (stereo not drawn) reads over 100 µM.
With `COc1cc(/C=C(\C#N)c2nc3ccccc3o2)ccc1O`, the TGI stood at 36.5 µM.
Still for that read-out and setting: the result for `C=CC1(C(=O)O)CCC(C(C)(C)C)CC1` (stereo not drawn) reads over 100 µM; that for `Cc1[nH]c2ccccc2c1C1Cc2ccccc2N1C(=O)/C=C\C(=O)O` (stereo not drawn), over 100 µM; that for `Cc1cc(Cl)ccc1NC(=O)CCCC(=O)C1CCCC1=O` (stereo not drawn), over 100 µM.
On to `CN1C2CCC1CC(CCOC(c1ccc(F)cc1)c1ccc(F)cc1)C2` (stereo not drawn), for which the TGI is 27.6 µM.
In the case of `COC(=O)c1cc2c(cc1Cl)SC(N(N(C)C)S(=O)(=O)c1ccc(Br)s1)=NS2(=O)=O`, the GI50 is 32.4 µM and the TGI is over 100 µM.
`CCN(CC)CSc1nc2ccccc2o1`: the TGI is over 100 µM.
`O=C(O[C@H]1CN[C@H](C#Cc2cc3ncnc(Nc4ccc5c(ccn5Cc5cc(F)ccc5F)c4)c3s2)C1)N1CCOCC1`: the GI50 was 0.292 µM and the TGI is over 19.9 µM.
For the compound `C=C(Cl)c1c(OC)cccc1OCc1ccccc1`, the TGI was over 100 µM.
With `O=Cc1ccc(-c2cc(C=O)c(-c3cccs3)[nH]2)s1`, the GI50 is 28.4 µM; the TGI is 75 µM and > 100 µM.
Compound `COc1ccc2nc3c([N+](=O)[O-])ccc4c3c(c2c1)N=CN4CCCN(C)C` yielded a TGI of 9.46 µM.
Same read-out and setting: with `COC(=O)C1=C(O)C(C(=O)OC)[C@]2(O)[C@H](C(=O)OC)[C@H]1C[C@@H](c1ccc(F)cc1)[C@H]2C(=O)OC` (stereo partly drawn) the figure was 31.2 µM.
On to `O=S(=O)(N/N=C/c1ccc(/C=N/NS(=O)(=O)c2ccccc2)cc1)c1ccccc1`, for which the TGI is over 100 µM.
With `O=S(=O)(NC1=NCCN1C(=S)SN1CCn2c1nsc2=S)c1ccc(Br)cc1`, the GI50 was over 100 µM and the TGI was over 100 µM.
Turning to `Cc1cc(C)c([O-])c(CN(C)CCN(C)Cc2cc(C)cc(C)c2[O-])c1.O=C([O-])c1cccc(C(=O)[O-])n1.[Ti+4]`, the GI50 was 2.45 µM and the TGI was over 100 µM.
For the compound `CN1CCC2(CC1)SC[C@H]1C(=O)N(c3ccc(Cl)cc3)C(=O)N12`, the TGI is over 100 µM.
On the same count and under the same terms, with `CC1C[C@@]2(c3ccccc3)C(=O)CCC[C@H]2N1` (stereo partly drawn) the figure was over 100 µM.
Turning to `CC1=C2[C@@H](CC1)[C@]1(C)O[C@@](C3CCCCC3)(C[C@H]1OC(=O)CO)[C@H]2OC(=O)/C=C/c1ccccc1`, the GI50 was 13 µM and the TGI amounted to 30 µM.
`OC(CCN1CCCCC1)(c1ccccc1)c1ccccc1` showed a TGI of over 100 µM.
The same measure, in the same setting: with `CC(=O)O[C@H]1CC[C@H]2[C@@H]3CCC4C(C)=NNC(=O)C4[C@H]3CC[C@]12C` (stereo partly drawn) the figure was over 100 µM.
Consider `CC(=O)[O-].CC(=O)[O-].[Pt+2].c1cscn1.c1cscn1`, for which the GI50 was over 100 µM and the TGI was over 100 µM.
Regarding `CCOC(=O)C1=CN/C(=C(/C)C(=O)OC)SC1C(=O)OCC` (stereo not drawn), the TGI is over 100 µM.
On to `CN[C@@H](C)C(=O)N[C@H](C(=O)N1CCC[C@H]1C(=O)N[C@H]1c2ccccc2C[C@H]1OCC#CC#CCO[C@@H]1Cc2ccccc2[C@@H]1NC(=O)[C@@H]1CCCN1C(=O)[C@@H](NC(=O)[C@H](C)NC)C1CCCCC1)C1CCCCC1`, for which the GI50 is 11.9 µM and the TGI turned out to be 25.9 µM.
`Cc1cc(C)nc(NS(=O)(=O)c2ccc(NNc3c4ccccc4nc4c(C(=O)Nc5ccc(S(=O)(=O)Nc6ncccn6)cc5)cccc34)cc2)n1` gave a TGI of over 100 µM.
On the same count and under the same terms, with `CCN(CC)c1cc2c3c(c1)CCCN3CCC2` the figure was over 10 µM.
With `CCOC(=O)C(Cc1c[nH]c2ccc(N)cc12)(NC(C)=O)C(=O)OCC`, the GI50 is over 1000 µM and the TGI was over 1000 µM.
For `COc1cc(S(=O)(=O)Nc2nc(-c3ccc(N4C(=O)C(CC(=O)O)SC4c4ccccc4O)cc3)cs2)ccc1Cl` (stereo not drawn), the TGI is over 100 µM.
Same read-out and setting: with `CCNC(=O)CCN(C(=O)O)S(=O)(=O)c1ccc(NC(=O)c2ccccc2)cc1` the figure was over 100 µM; with `COc1ccc([N+](=O)[O-])c2c(NCCCN(C)C)c3ccccc3nc12`, 3.71 µM; with `Cc1ccc2c(c1)C(=O)/C(=N/Nc1ccc(Cl)cc1)CCO2`, over 100 µM.
Turning to `O=c1c2cc(Cl)ccc2oc2ccc(OCCCCCN3CCCCC3)cc12`, the GI50 was 6.4 µM and the TGI is 12.9 µM.
For the compound `CC(C)c1ccc(C(=O)Nc2nc3ccc(O)cc3s2)cc1`, the GI50 was 3.22 µM and the TGI was over 100 µM.
For the compound `O=C(Nc1cc(Cl)c(Cl)cc1Cl)C(=O)C1C=CCS1(=O)=O` (stereo not drawn), the TGI is over 100 µM.
Still for that read-out and setting: with `O=C(/C=C/c1ccc([N+](=O)[O-])o1)N1CCN(Cc2ccccc2)CC1` the figure was 23 µM.
On the same count and under the same terms, with `c1ccc2c(c1)CCC/C2=N\OCC1CO1` (stereo not drawn) the figure was over 100 µM.
`COc1cccc(OC/C(N=Cc2cccnc2)=N/NC(=O)c2ccncc2)c1` yielded a TGI of over 100 µM.
For `CC[C@H](NC(=O)[C@H](C)NC)C(=O)N1C[C@@H](O)C[C@H]1Cc1c(-c2[nH]c3cc(F)ccc3c2C[C@@H]2C[C@H](O)CN2C(=O)[C@H](CC)NC(=O)[C@H](C)NC)[nH]c2cc(F)ccc12`, the GI50 is over 100 µM and the TGI is over 100 µM.
For `NOCC(=O)O`, the GI50 is over 100 µM and the TGI was over 100 µM.
In turn, `COC(=O)c1s/c(=N\C(=S)N(C)C)n(-c2ccccc2)c1C(=O)OC` returned a TGI of over 100 µM.
As to `C=C1C(=O)O[C@H]2[C@H]1CC/C(CNC(=O)c1cc3cc(OC)ccc3[nH]1)=C\CC[C@@]1(C)O[C@@H]21`, the GI50 is 11.2 µM and the TGI was found to be 23.8 µM.
For `O=c1c(Oc2ccc(F)cc2F)cc2cnc(NC3CCOCC3)nc2n1C1CCS(=O)(=O)CC1`, in that order: over 25 µM and over 25 µM.
Turning to `CC12OC(c3ccccc3)=CC(c3ccc(Cl)cc3)=C1C(c1ccccc1)=CC2=O` (stereo not drawn), the GI50 is over 100 µM and the TGI was over 100 µM.
`CC1(C)C2CCC3=C(CCC4(C)C5C[C@](C)(C(=O)O)CC[C@]5(C)CC[C@]34C)[C@@]2(C)CC[C@@H]1O` (stereo partly drawn) showed a TGI of 39.1 µM.
Same read-out and setting: with `COC(=O)C1C(C(=O)OC)C2(OC)c3ccccc3-c3ccccc3C12` (stereo not drawn) the figure was over 100 µM; with `O=C1c2ccccc2-c2cccc3ccc(Cc4ccc5ccccc5c4)c1c23`, over 100 µM.
The same measure, in the same setting: with `COC(=O)c1cc2c(o1)Sc1ccccc1NC2=O` the figure was over 100 µM; with `COC(=O)C(Cc1c[nH]c2ccccc12)N=C1Nc2ccncc2S(=O)(=O)N1c1ccccc1` (stereo not drawn), 56.1 µM.
`CC(C)(C#N)c1cc(Cn2cncn2)cc(C(C)(C)C#N)c1`: the GI50 was over 10000 µM and the TGI is over 10000 µM.
Take `COc1cc(Cl)c2c3c(c(C(C)=O)oc13)CCC2`: the TGI was over 100 µM.
The same measure, in the same setting: the result for `CC(C)(C)[Si](C)(C)O[C@@H](C(=O)OC1C=CCCC1)[C@@H](NC(=O)c1ccccc1)c1ccccc1` (stereo partly drawn) reads over 100 µM.
On the same count and under the same terms, the result for `O=C1C(=O)c2c(oc(=O)c3ccccc23)-c2ccccc21` reads over 25 µM; that for `CSc1nc(C)c2c(n1)SCC2`, over 10 µM.
In the case of `COc1cc(Nc2nccc(Nc3ccc4c(C)[nH]nc4c3)n2)cc(OC)c1OC`, the GI50 was 1.98 µM and the TGI is 13.5 µM.
`Cc1ccc(-n2cnc3c(N)nc(N)nc32)cc1`: the TGI was over 100 µM.
The compound `COc1cc(S(=O)(=O)Nc2nc(-c3ccc(N4C(=O)CSC4c4cccs4)cc3)cs2)ccc1Cl` (stereo not drawn) displayed a TGI of over 100 µM.
Turning to `CCOC(=O)C(N)C[S][Sn]([CH3])([CH3])[Cl]` (stereo not drawn), the GI50 is over 100 µM and the TGI was over 100 µM.
The compound `COc1ccc(-c2onc(-c3ccc([N+](=O)[O-])cc3)c2C2=NCCN2)cc1` gave a TGI of over 100 µM.
